PubChem BioAssay AID1476 (National Center for Advancing Translational Sciences (NCATS), 2009)
About 4,500 (2.2%) of roughly 200,000 compounds were called active. Inconclusive results, whose numbers are uncertain, are shown with a selection of clear calls. The call rests on the fitted dose curve; in most records, active means well fitted inhibition curve with a large enough effect; inconclusive means small, poorly fitted or top-dose-only effect, or effect the other way; inactive means flat fitted curve, though single readings scatter. Where the call is inconclusive, the potency comes from a doubtful curve fit.

Target: Cruzipain (Trypanosoma cruzi) (UniProt P25779)
Test: qHTS Assay for Promiscuous and Specific Inhibitors of Cruzain (without detergent); further: nearly all actives have a fitted effect of over 40% in size;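 on max response, negative = inhibition: plate controls were enzyme without inhibitor for no effect and buffer without enzyme for full effect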
Conditions: purified cruzain, Z-FR-AMC fluorescence, no detergent
Procedure, shortened: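 Purified cruzain at 1.5 nM, pre-incubated 15 min with compound at room temperature in 100 mM sodium acetate pH 5.5, 5 mM DTT, 0.00005% Triton X-100. Reaction started with 2 uM Z-FR-AMC; AMC fluorescence increase over 60 s gives rate.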
Potency means the concentration at half of the fitted maximal effect; tags describe the fitted curve by direction and shape.

Sequence of UniProt P25779 (P25779 whole entry, looked up): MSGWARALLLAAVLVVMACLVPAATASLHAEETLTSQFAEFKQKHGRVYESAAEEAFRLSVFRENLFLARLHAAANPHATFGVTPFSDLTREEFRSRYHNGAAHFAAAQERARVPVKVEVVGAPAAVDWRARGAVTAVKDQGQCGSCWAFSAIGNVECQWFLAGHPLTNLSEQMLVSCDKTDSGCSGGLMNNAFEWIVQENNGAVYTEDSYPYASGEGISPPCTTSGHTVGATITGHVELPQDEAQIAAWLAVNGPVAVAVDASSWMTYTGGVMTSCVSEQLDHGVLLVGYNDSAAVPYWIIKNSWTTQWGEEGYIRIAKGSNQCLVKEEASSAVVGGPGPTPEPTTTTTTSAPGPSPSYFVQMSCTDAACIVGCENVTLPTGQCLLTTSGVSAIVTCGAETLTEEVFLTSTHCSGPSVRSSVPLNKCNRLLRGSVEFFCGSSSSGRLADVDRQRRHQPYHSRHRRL

| Compound | Potency | max response, negative = inhibition |
| --- | --- | --- |
| COc1ccccc1N1CCN(C(=O)C2CCN(S(=O)(=O)c3ccc(F)cc3)CC2)CC1 | inconclusive: 31.6 µM [activator, partial curve] |  |
| C/C(=N/NC(=O)c1sc(=S)n(C)c1C)c1ccccc1 | inconclusive: 31.6 µM [inhibitor, single point] |  |
| CCOc1ccc(Sc2cc(C(=O)NCc3ccccc3Cl)c3ccccc3n2)cc1 |  | inactive: 1.32% |
| CCc1ccc(NC(=O)Cn2c(=O)n(CCCC(=O)NCCc3ccc(OC)c(OC)c3)c(=O)c3ccccc32)cc1 |  | inactive: 0.924% |
| Cc1ccccc1N1CC(c2nc3ccccc3n2Cc2ccc(Br)cc2)CC1=O (configuration not stated) |  | inactive: 4.82% |
| Cc1cc(NC(=O)c2cc(-c3ccc(Cl)c(Cl)c3)on2)n(-c2ccccc2)n1 |  | inactive: 0.459% |
| COc1ccc(OC)c(C(=O)CN2C(=O)N(c3ccc(C)cc3)S(=O)(=O)c3ccccc32)c1 | inconclusive: 31.6 µM [inhibitor, single point] |  |
| Cc1ccc(C(=O)N2CCN(c3ccc(NC(=S)NC(=O)Cc4ccccc4)cc3)CC2)cc1 | inconclusive: 39.8 µM [inhibitor, single point] |  |
| Cc1ccc(NCCC(=O)c2ccc(Cl)cc2)cc1 | inconclusive: 39.8 µM [inhibitor, single point] |  |
| O=C(Nc1ccccc1C(F)(F)F)c1cc(-c2cccc(O)c2)on1 | inconclusive: 39.8 µM [inhibitor, single point] |  |
| CC1(C)[C@@H](O[C@H]2O[C@H](C(=O)O)[C@@H](O)[C@H](O)[C@H]2O[C@@H]2O[C@H](C(=O)O)[C@@H](O)[C@H](O)[C@H]2O)CC[C@]2(C)[C@H]3C(=O)C=C4[C@@H]5C[C@@](C)(C(=O)O)CC[C@]5(C)CC[C@@]4(C)[C@]3(C)CC[C@@H]12 | inconclusive: 3.16 µM [activator, single point] |  |
| NC[C@@H](O)CSP(=O)(O)O |  | inactive: 10.8% |
| COc1ccc(C(=O)Sc2ccc(Cl)cc2)cc1OC | inconclusive: 31.6 µM [inhibitor, single point] |  |
| CCOc1ccc(/C=C/c2nc(C#N)c(N3CCC(C)CC3)o2)cc1 |  | inactive: 6.95% |
| COc1cc(-c2nc3n(n2)C(c2cccc(OC)c2OC)C2=C(CCCC2=O)N3)cc(OC)c1OC (configuration not stated) | inconclusive: 25.1 µM [activator, single point] |  |
| COc1cccc(NC(=O)Cn2c(-c3nonc3N)nc3ccccc32)c1 | inconclusive: 31.6 µM [inhibitor, single point] |  |
| COc1cc(N=c2ssnc2Cl)cc(OC)c1 | active: 15.8 µM |  |
